Consider 27 molecules from PubChem BioAssay AID1745853 (National Center for Advancing Translational Sciences (NCATS), 2022).

This is one part of the list. The main result of the screen is listed elsewhere. These columns were measured beside it and carry no call.

Common to all, as to experiment: Primary Screen for Target Class Profiling of Small Molecule Inhibitors of Methyltransferases
Assay [1] deals with Glycine N-methyltransferase (Homo sapiens) (UniProt Q14749). The note with it: purified enzyme, MTase-Glo SAH luminescence; measured here: GNMT inhibition; at 40 µM; stronger effect = lower value. In outline: (§1)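 Each enzyme was reacted with SAM and its substrate, with compounds tested once at 40 uM; SAH formed was read by MTase-Glo luminescence.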
Assay [2] addresses Guanidinoacetate N-methyltransferase (Homo sapiens) (UniProt Q14353). The note with it: purified enzyme, MTase-Glo SAH luminescence; measured here: GAMT inhibition; at 40 µM; stronger effect = lower value. In outline: as §1
Assay [3] deals with Histamine N-methyltransferase (Homo sapiens) (UniProt P50135). The note with it: purified enzyme, MTase-Glo SAH luminescence; measured here: HNMT inhibition; at 40 µM; stronger effect = lower value. In short, it runs like this:
as §1

Assay [4] has as its target Nicotinamide N-methyltransferase (Homo sapiens) (UniProt P40261). The settings on record: purified enzyme, MTase-Glo SAH luminescence; measured here: NNMT inhibition; at 40 µM; stronger effect = lower value. In outline:
as §1

For assay [5], the target named is Phenylethanolamine N-methyltransferase (Homo sapiens) (UniProt P11086). The note with it: purified enzyme, MTase-Glo SAH luminescence; measured here: PNMT inhibition; at 40 µM; stronger effect = lower value. In outline:
as §1
% is set by controls: 0 for no effect and ±100 for the full control effect.

As to `CCCn1c(=O)c2ccc(C(=O)NC3CCCCC3)cc2n2c(SCC(=O)NC(C)C)nnc12`, the activity change, negative = inhibition is 10.2% in assay [1]; 1.78% in assay [2]; 12.4% in assay [3]; 10.4% in assay [4]; 7.36% in assay [5].
For `CC(C)n1c(=O)c2ccc(C(=O)NC3CCCCC3)cc2n2c(=O)n(CC(=O)NC(C)(C)C)nc12`, in that order: -4.24%, 0.249%, -2.25%, -4.3% and -2.93%.
Consider `CC1(C(=O)NCc2ccccc2)Cn2c(cc3ccccc32)C(=O)N1Cc1cccc(Cl)c1` (stereo not given), for which the activity change, negative = inhibition was -3.39% in assay [1]; -1.34% in assay [2]; -2.92% in assay [3]; -10.6% in assay [4]; -3.6% in assay [5].
For `COc1ccc(NC(=O)c2nc3sccn3c2-c2cccc(OC)c2)cc1`, in that order: -11.3%, -5.87%, -4.15%, -19% and 5.72%.
The like results for `COCC1OC(OC(C)(C)C2CCC3(C)C=C(C4CCC5C4(C)CC(O)C4OC(C(C)(C)O)CCC45C)CCC3O2)C(NC(C)=O)C(O)C1O` (stereo not given) were, in that order, -0.533%, 7.22%, -7.59%, -5.61% and -2.06%.
For `CCOc1ccc(NC(=O)N2Cc3c(sc4c3CCCC4)-n3cccc3C2c2ccc(F)cc2)cc1` (stereo not given), in that order: 0.404%, 1.09%, 7.16%, 2.13% and 9.01%.
As for `Cc1cccc(CN2C(=O)c3ccc(-c4ccccc4)n3CC2(C)C(=O)NC2CCC(C)CC2)c1` (stereo not given), the activity change, negative = inhibition in assay [1] is 4.66%; in assay [2], 0%; in assay [3], -3.25%; in assay [4], -1.82%; in assay [5], 1.37%.
On to `CC(=O)N[C@H](Cc1c[nH]c2ccccc12)C(=O)OCc1cc(C(F)(F)F)cc(C(F)(F)F)c1`, for which the activity change, negative = inhibition is 1.51% in assay [1]; 9.99% in assay [2]; 11.5% in assay [3]; -5.94% in assay [4]; 9.22% in assay [5].
For `OC[C@@]1(O)CO[C@@H](OC[C@H]2O[C@@H](Oc3ccccc3)[C@H](O)[C@@H](O)[C@@H]2O)[C@@H]1O`, in that order: -10.1%, 3.09%, 4.15%, -7.66% and 5.13%.
Consider `CN1CCN(c2ccc(-c3cccc(CN4CCOCC4)c3)cc2NC(=O)c2c[nH]c(=O)cc2C(F)(F)F)CC1`, for which the activity change, negative = inhibition in assay [1] was 1.75%; in assay [2] it was 1.65%; in assay [3], 0.835%; in assay [4], -8.4%; in assay [5], 5.16%.
The like results for `CC(C)(C)c1cc(NC(=O)Nc2ccc(-c3cn4c(n3)sc3cc(OCCN5CCOCC5)ccc34)cc2)no1` were, in that order, 5.2%, 19.3%, 11.6%, 3.28% and 6.99%.
For `CCCn1c(=O)c2ccc(C(=O)NC3CCCC3)cc2n2c(=O)n(Cc3ccc(F)cc3)nc12`, in that order: -8.13%, -3.3%, -2.56%, -3.45% and -7.44%.
The like results for `CN1C(=O)c2cc(NC(=O)c3ccccc3F)ccc2N2CCN=C12` were, in that order, -6.79%, -4.29%, 4.93%, -5.93% and -6.28%.
For the molecule `CC1(C(=O)NC2CCCCCC2)Cn2c(ccc2-c2ccco2)C(=O)N1Cc1ccc2c(c1)OCO2` (stereo not given), the activity change, negative = inhibition is -4.66% in assay [1]; 3.91% in assay [2]; -2.19% in assay [3]; -9.26% in assay [4]; -2.05% in assay [5].
For `C[C@]12CC[C@@H]3c4ccc(O)cc4CC[C@H]3[C@@H]1C[C@@H](O[C@@H]1O[C@H](C(=O)O)[C@@H](O)[C@H](O)[C@H]1O)[C@@H]2O`, in that order: -13.1%, 7.7%, -3.41%, -16.3% and -8.67%.
For `NC(=Nc1ccc(CCNCc2cccc(Cl)c2)cc1)c1cccs1`, in that order: 1.38%, 10.7%, -60.3%, -10.5% and -10.9%.
For `Cc1noc(-c2ccccc2OC2CCNC2)n1` (stereo not given), in that order: -5.97%, -5.08%, -5.93%, -6.97% and -5.29%.
Turning to `CC1(C)Cc2c(-c3ccccc3)c(-c3ccc(Cl)cc3)c(CC(=O)O)n2C1`, the activity change, negative = inhibition in assay [1] is -10.9%; in assay [2] it was -26.1%; in assay [3] it was -1.74%; in assay [4], -45.7%; in assay [5], -6.27%.
For `CCOC(=O)CNC(=O)C1(C)Cn2c(ccc2-c2ccco2)C(=O)N1Cc1ccccc1Cl` (stereo not given), in that order: -0.855%, 2.27%, 1.2%, 1.99% and -0.519%.
Turning to `CCCN1C(=O)c2c(C(=O)Nc3ccccc3Cl)ncn2CC1(C)C(=O)NCc1ccc(OC)cc1` (stereo not given), the activity change, negative = inhibition in assay [1] is -1.52%; in assay [2], 0.783%; in assay [3], 2.11%; in assay [4], 0.965%; in assay [5], 4.28%.
The like results for `CC(C)NC(=O)c1ccc2c(=O)n(Cc3ccccc3)c3nnc(SCc4ccc(F)cc4)n3c2c1` were, in that order, 5.01%, 1.33%, 10.5%, 1.97% and 7.24%.
For `CN1CCOC[C@H]2CCN(C(=O)c3cccs3)C[C@H]21`, in that order: 4.28%, -7.41%, -3.72%, -8.02% and 4.59%.
The like results for `CCCn1c(=O)c2ccc(C(=O)NC(C)CC)cc2n2c(SCC(=O)Nc3ccc(C)cc3)nnc12` (stereo not given) were, in that order, 0.677%, 0%, 5.37%, 1.79% and 2.9%.
Consider `Cc1ccc(OCc2nc(C3CCN(S(=O)(=O)Cc4ccccc4F)C3)no2)cc1` (stereo not given), for which the activity change, negative = inhibition in assay [1] was -3.65%; in assay [2], -2.42%; in assay [3], 0.925%; in assay [4], -3.33%; in assay [5], -2.97%.
The like results for `O=C(CCc1ccncc1)NNC(=O)N1Cc2ccccc2Oc2ccc(Cl)cc21` were, in that order, -1.56%, 11.3%, 3.2%, -3.96% and 9.64%.
In the case of `CC1CN(c2cc3c(cc2F)c(=O)c(C(=O)O)cn3-c2ccc(F)cc2F)CCN1` (stereo not given), the activity change, negative = inhibition in assay [1] is -2.05%; in assay [2], 2.58%; in assay [3], -5.63%; in assay [4], -14.7%; in assay [5] it was -6.87%.
For the molecule `CCCn1cc(C(=O)N2C[C@@H](N(C)C)[C@H](c3ccc(C)cc3)C2)c(C)n1`, the activity change, negative = inhibition in assay [1] is -3.85%; in assay [2] it was -2.96%; in assay [3] it was -2.34%; in assay [4], -8.56%; in assay [5] it was -2.87%.
